# ± gives the standard deviation of the averaged measurements. The list shows a part of the results.
# Tested on: PfAP2-EXP AP2 domain (GST-tagged)
# Test: gcPBM binding intensity (ln(normalized median fluorescence intensity)); higher = stronger DNA binding
# Outline: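 Binding of GST-tagged P. falciparum DNA-binding domains, expressed in E. coli and used at about 25 μg on average, was carried out for 1 h in 1× PBS containing 1% milk, 0.2 mg/ml BSA, 0.5% salmon testes DNA and 0.03% Triton X-100. The target was an Agilent 4 × 180k array of primer-extended double-stranded 36-bp intergenic genomic probes plus negative controls, read with Alexa488 anti-GST antibody at 488 nm. Binding intensity is the highest Masliner-normalised natural-log median intensity across replicate spots of either probe orientation.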
row,Sequence,gcPBM binding intensity (ln)
1,TTTCTTTCTATTGTTATATTTATAATAATTATAATT [XGTACX_negctrl_site215],8.57 ± 0.42
2,TATAAAATTACATTTTGTCATTTATTTTTTCCCACT [TGCATGCA_negctrl_site110],8.28 ± 0.45
3,TGTTTAAGTGTTTTTAGTACTTATAAAAATATTATC [XGTACX_site7379],8.25 ± 0.3
4,ATATTATCCCTATTTGCACACAAGAGTAATTTTTTA [CACACA_site3908],8.71 ± 0.38
5,TTTCTAATATATAAAGTGCAATACCATTCAGAGTTA,8.56 ± 0.3
6,ATTGTCTTTTAATAGTGTACTTATTTTAAATATTGC [XGTACX_site8517],8.65 ± 0.32
7,TATAATTTATAAGTAGTGCATTTCTTTTCATTTTTA,8.655 ± 0.007
8,AAGAAAATAAAATAAAATAAAATAAAATAAAAATAT [TGCATGCA_negctrl_site493],8.62 ± 0.34
9,ATATGGAAGAATTAAAGTACTTAAAAAAATGTCAGT [XGTACX_site6837],9.11 ± 0.51
10,TTTTATAGAGTGTATACATGCAATACCACATAAAAT [TGCATGCA_site476],8.98 ± 0.3
11,TGATGATATAAAAACACACACATATAACATAATACT [CACACA_site6687],8.71 ± 0.61
12,TTATTATATATAAGTAGTACAAACAATTAAGAGATA [XGTACX_site4009],8.84 ± 0.3
13,GTAAAAAAAAAAAAATGTACACATATATATAATATA [XGTACX_site159],8.37 ± 0.26
14,TTTTTTTTTTTTAATACACACATATATATATTTATT [CACACA_site3994],8.38 ± 0.42
15,AACATAATTAAAAATTGTACAGAATTTCAATCGAAA [XGTACX_site7542],8.54 ± 0.59
16,ATAAAAATGTATATATGTACATATATATATATATAT [XGTACX_site1505],9.97 ± 0.6
17,ATCACTTGAGAATAATTACATTAATATATATTTATG [TGCATGCA_negctrl_site581],8.17 ± 0.54
18,CTTTTTAATTAATACACACACACACCCATATATATA [CACACA_site2292],8.86 ± 0.27
19,CATATACATACACATACACACATACAGACATACACA [CACACA_site6919],8.69 ± 0.37
20,GGGAAAGAACCATATACATGCATATTTACCGTTAAA [TGCATGCA_site519],8.69 ± 0.38
21,TGAAATTTTATTAATGTGCACATATATTTATTGTTC,8.71 ± 0.29
22,ACATTCATAAAAAAAAGTACATTTTTTATAAAAGAA [XGTACX_site6197],8.53 ± 0.46
23,TTGTTAAATATTTATAAAATGAATTTAAAATGTACT [CACACA_negctrl_site665],8.34 ± 0.47

row,Sequence,gcPBM binding intensity (ln)
1,TATATTTAGAATACAATCTTAAAGTTGAAATAAAAT [CACACA_negctrl_site1292],8.16 ± 0.4
2,AACATAATAAAAAAACGTACATAATTTTATATACAT [XGTACX_site6602],8.51 ± 0.25
3,TTTATTATCTTATTCACACACATATATAAATATGTA [CACACA_site7369],8.58 ± 0.4
4,AAAAAAAAAACATACACACACACAAATATTTATATA [CACACA_site437],8.54 ± 0.71
5,ATATATCCAATATATATATATATATATATATATATA [CACACA_negctrl_site160],9.99 ± 0.74
6,AAATTATGTGCCAATACACACACACCGATATATATA [CACACA_site8050],8.72 ± 0.38
7,ATAATATAGAAACACACACACATATATATATACATT [CACACA_site555],8.71 ± 0.29
8,TTTATATATAAATATATATATATATATATATATATA [TGCATGCA_negctrl_site121],10.2 ± 0.35
9,TAGTTTTTATATAGCACACATATTGTGATTATGTAT [CACACA_site1196],8.61 ± 0.19
10,TACTACCACGGACATGCATGCACATTATTACTCTAA [TGCATGCA_site313],9.96 ± 0.13
11,TTCTTAGATTGTACAGTACACACCTTTAGAATGTTA [CACACA_site212],8.79 ± 0.4
12,AATTCATTTTACCCATGTACACAATTATATTTTATA [XGTACX_site4127],8.78 ± 0.22
13,AAGAAAAAATGATGAATAGAGATCAAATCTATATAT [TGCATGCA_negctrl_site29],8.38 ± 0.49
14,TTTTGTTACTTTTATGTGCACTTATAAAACGAACTA [GTGCAC_site9551],9.11 ± 0.014
15,GACTTTTCAATTTTTCGTACGTATAAATTGTATACA [XGTACX_site1488],8.81 ± 0.34
16,CTAATATATATCAATTGTACATATTGAATAAGAACA [XGTACX_site4541],8.59 ± 0.44
17,TTTTTATTGTTGTACTTATATTATTTTATTATTAAA [GTGCAC_negctrl_site200],8.96 ± 0.24
18,ATTCATTCATATGTTACACACACACCGACACATAAA [CACACA_site5749],8.87 ± 0.52
19,TTTTGAAGTAACAAATAAATAAATAAATATATAAAA [GTGCAC_negctrl_site517],8.54 ± 0.45
20,TATTAAACTGGACACACACACACACCCATATATAAA [CACACA_site4579],8.72 ± 0.59
21,ACATAATTTGATAATACACACAAATAATCTAAAATT [CACACA_site129],8.38 ± 0.41
22,TATATTAATATGAAAAGTACACATTCTATATATATA [XGTACX_site929],8.99 ± 0.18

# Reference: the supplement of paper PMC11417369
